The values below come from the supplement of paper PMC12645437, “Orthogonal IMiD-Degron Pairs Induce Selective Protein Degradation in Cells” (ACS Chemical Biology, 2025).

Some of the results follow.

B1: Q9UKT9 (peptide)
chain: FICPICGATFTQKGNLLRHIKL
B2: Q9UKT9 (peptide)
chain: FWCPICGHNFTQKGNLLRHIKL
B3: Q9UKT9 (peptide)
chain: FKCEICGRLFTQKGNLLRHIKL
B4: Q9UKT9 (peptide)
chain: FFCEICGAAFTQKGNLLRHIKL
B5: Q9UKT9 (peptide)
chain: FECPICGHPFTQKGNLLRHIKL
B6: Q9UKT9 (peptide)
chain: FICSVCGHFFTQKGNLLRHIKL
B7: Q9UKT9 (peptide)
chain: FTCDVCGAPFTQKGNLLRHIKL
B8: Q9UKT9 (peptide)
chain: FECEICGHSFTQKGNLLRHIKL
B9: Q9UKT9 (peptide)
chain: FLCNQCGHNFTQKGNLLRHIKL
B10: Q9UKT9 (peptide)
chain: FTCNQCGHNFTQKGNLLRHIKL
B11: Q9UKT9 (peptide)
chain: LTCNQCGFNCTQKGNLLRHIKL
B12: Q9UKT9 (peptide)
chain: LGCNQCGFHCTQKGNLLRHIKL
B13: Q9UKT9 (peptide)
chain: FTCNICGAIFTQKGNLLRHIKL
B14: Q9UKT9 (peptide)
chain: FECNQCGAGFTQKGNLLRHIKL
B15: Q9UKT9 (peptide)
chain: LCCNQCGFNCTQKGNLLRHIKL
B16: Q9UKT9 (peptide)
chain: FQCEICGRFFTQKGNLLRHIKL
B17: Q9UKT9 (peptide)
chain: FECNQCGAQFTQKGNLLRHIKL
B18: Q9UKT9 (peptide)
chain: FSCPICGHQFTQKGNLLRHIKL
B19: Q9UKT9 (peptide)
chain: FLCDVCGALFTQKGNLLRHIKL
B20: Q9UKT9 (peptide)
chain: FFCDQCGANFTQKGNLLRHIKL
B21: Q9UKT9 (peptide)
chain: FVCPICGACFTQKGNLLRHIKL
B22: Q9UKT9 (peptide)
chain: FSCPQCGAIFTQKGNLLRHIKL
B23: Q9UKT9 (peptide)
chain: FWCDVCGAKFTQKGNLLRHIKL
B24: Q9UKT9 (peptide)
chain: FSCNQCGAYFTQKGNLLRHIKL
B25: Q9UKT9 (peptide)
chain: FDCNICGAEFTQKGNLLRHIKL
B26: Q9UKT9 (peptide)
chain: FMCPQCGAVFTQKGNLLRHIKL
B27: Q9UKT9 (peptide)
chain: FNCEICGRRFTQKGNLLRHIKL
B28: Q9UKT9 (peptide)
chain: FCCEICGALFTQKGNLLRHIKL
B29: Q9UKT9 (peptide)
chain: LKCNQCGFPCTQKGNLLRHIKL
B30: Q9UKT9 (peptide)
chain: FECEICGAIFTQKGNLLRHIKL
B31: Q9UKT9 (peptide)
chain: FVCEVCGAAFTQKGNLLRHIKL
B32: Q9UKT9 (peptide)
chain: FSCNICGAWFTQKGNLLRHIKL
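Also: jurkat cells carrying a lentiviral library of mutant zinc finger degrons fused to EGFP plus mCherry, mCherry+ cells FACS sorted, degron abundance counted by next-generation sequencing.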

The target in the assay is no compound (DMSO). Put plainly: log2 fold change of degron read counts, EGFP-low vs EGFP+ sorted cells; higher = lower degron-EGFP level without compound (poor expression or instability). Particulars: compound: DMSO control; 18 h.
For B1, the “log2 fold change of degron read counts” value was -0.412. As for B2, the “log2 fold change of degron read counts” value turned out to be 0.643. As for B3, the “log2 fold change of degron read counts” value is -1.2. Next, B4: -1.69. Next, B5: -0.455; B6: 0.802. Next, B7: -0.574; B8: -1.97. With B9, the “log2 fold change of degron read counts” value amounted to 0.269.

As for B10, the “log2 fold change of degron read counts” value was -0.918. As for B11, the “log2 fold change of degron read counts” value was 0.353. Next, B12: 1.54. Next, B13: 0.158; B14: -1.63. Next, B15: 0.576. Consider B16, for which the “log2 fold change of degron read counts” value was -0.941. As for B17, the “log2 fold change of degron read counts” value is -2.49. Next, B18: 0.0344; B19: -0.867. Next, B20: -2.7. Take B21: the “log2 fold change of degron read counts” value turned out to be 0.0248. Next, B22: -0.545.

Regarding B23, the “log2 fold change of degron read counts” value is -0.519.

On to B24, for which the “log2 fold change of degron read counts” value is 0.729. Consider B25, for which the “log2 fold change of degron read counts” value was -1.45. Next, B26: -0.29. Next, B27: -0.899. As for B28, the “log2 fold change of degron read counts” value was -1.3. As to B29, the “log2 fold change of degron read counts” value was determined as 0.785.

For B30, the “log2 fold change of degron read counts” value is -1.21. Next, B31: -1.59; B32: -0.0526.
